Results: the supplement of paper PMC4967469
A lower IC50 marks a more sensitive line; where the fit passes the top or lowest dose, that dose stands as a limit. AUC is the area under the same curve over the 256-fold range up to the top dose, as a fraction; it is 1 without any effect and falls as sensitivity rises. Where the top dose is marked as inferred, it was derived from the fitted curves, not read from the paper.

Each cell line was assayed with CCCCCCCCCCCC1=C(O)C(=O)C=C(O)C1=O [Embelin] (assay: Viability of human cancer cell lines after 72 h of drug (GDSC screen)). Settings: top dose 32 µM; top dose inferred.
Experimental: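 Human cancer cell lines in 384-well plates, medium with 10% serum, drug for 72 h over a 256-fold dose range (nine 2-fold or five 4-fold steps up to the top dose). Adherent lines were fixed and stained with the nucleic acid dye Syto60, suspension lines read with resazurin; signal relative to control wells, capped at 0 and 100%. One two-parameter sigmoid per drug and line, fitted in a mixed model over all curves with the slope shared within a line.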
8-MG-BA (glioma, adherent) showed an AUC of 0.632 and an IC50 of 4.5 µM. Work on 22RV1 (prostate, adherent) yielded an AUC of 0.807 and an IC50 of 21.4 µM. 42-MG-BA (glioma, adherent) gave an AUC of 0.867 and an IC50 of over 32 µM. For 201T (lung adenocarcinoma, adherent), the AUC was 0.697 and the IC50 was 8.33 µM. 451Lu (melanoma, adherent) was tested, and the AUC was 0.795 and the IC50 was 14.2 µM. 639-V (bladder, adherent) was tested, and the AUC was 0.792 and the IC50 was 12.2 µM. In the case of 647-V (bladder, adherent), the AUC is reported as 0.795 and the IC50 is reported as 14.9 µM. In the case of “697 (lymphoblastic leukaemia, suspension)”, the AUC is reported as 0.792 and the IC50 is reported as 11.4 µM. In the case of 769-P (kidney, adherent), the AUC is reported as 0.743 and the IC50 is reported as 10.7 µM. Work on 786-0 (kidney, adherent) yielded an AUC of 0.749 and an IC50 of 9.66 µM. 5637 (bladder, adherent) was tested, and the AUC was 0.803 and the IC50 was 14.1 µM. Work on 8305C (thyroid, adherent) yielded an AUC of 0.849 and an IC50 of over 32 µM. Work on 8505C (thyroid, adherent) yielded an AUC of 0.728 and an IC50 of 9.28 µM. With 23132-87 (stomach, adherent) the AUC was 0.803 and the IC50 was 16.5 µM. With A3-KAW (B-cell lymphoma, suspension) the AUC was 0.726 and the IC50 was 7.45 µM. Cell Line A4-Fuk (B-cell lymphoma, suspension) has an AUC of 0.883 and an IC50 of over 32 µM. A101D (melanoma, adherent) gave an AUC of 0.643 and an IC50 of 5.48 µM. Cell Line A172 (glioma, adherent) has an AUC of 0.75 and an IC50 of 10.1 µM. For A204 (rhabdomyosarcoma, adherent), the AUC was 0.777 and the IC50 was 16.9 µM. Cell Line A253 (head and neck, adherent) has an AUC of 0.678 and an IC50 of 6.18 µM. For A375 (melanoma, adherent), the AUC was 0.615 and the IC50 was 3.89 µM. Work on A388 (skin, adherent) yielded an AUC of 0.692 and an IC50 of 7.52 µM. “A427 (non-small cell lung carcinoma, adherent)” showed an AUC of 0.726 and an IC50 of 8.82 µM. Cell Line A431 (skin, adherent) has an AUC of 0.704 and an IC50 of 7.31 µM. With A498 (kidney, adherent) the AUC was 0.84 and the IC50 was over 32 µM. With A673 (rhabdomyosarcoma, adherent) the AUC was 0.793 and the IC50 was 13 µM. A704 (kidney, adherent) was tested, and the AUC was 0.741 and the IC50 was 9.5 µM. A2058 (melanoma, adherent) gave an AUC of 0.52 and an IC50 of 2.25 µM. With A2780 (ovary, semi-adherent) the AUC was 0.787 and the IC50 was 14.4 µM. ABC-1 (lung adenocarcinoma, adherent) gave an AUC of 0.87 and an IC50 of over 32 µM. ACHN (kidney, adherent) showed an AUC of 0.802 and an IC50 of 18.4 µM. AGS (stomach, adherent) gave an AUC of 0.742 and an IC50 of 9.03 µM. Work on “ALL-PO (lymphoblastic leukaemia, suspension)” yielded an AUC of 0.55 and an IC50 of 2.77 µM. For ALL-SIL (T-cell leukaemia, suspension), the AUC was 0.619 and the IC50 was 4.05 µM. AM-38 (glioma, semi-adherent) showed an AUC of 0.791 and an IC50 of 14.7 µM. In the case of “AMO-1 (haematopoietic neoplasm, suspension)”, the AUC is reported as 0.891 and the IC50 is reported as 27.9 µM. For AN3-CA (endometrium, adherent), the AUC was 0.683 and the IC50 was 6.87 µM. For ARH-77 (myeloma, suspension), the AUC was 0.825 and the IC50 was 18.3 µM. Work on ASH-3 (thyroid, adherent) yielded an AUC of 0.666 and an IC50 of 5.81 µM. “ATN-1 (T-cell lymphoblastic leukaemia, suspension)” showed an AUC of 0.869 and an IC50 of 26.4 µM. AU565 (breast, adherent) gave an AUC of 0.759 and an IC50 of 12.3 µM. In the case of AsPC-1 (pancreas, adherent), the AUC is reported as 0.843 and the IC50 is reported as over 32 µM. Cell Line BB30-HNC (head and neck, adherent) has an AUC of 0.643 and an IC50 of 4.94 µM. For BB49-HNC (head and neck, adherent), the AUC was 0.797 and the IC50 was 22.8 µM. BB65-RCC (kidney, adherent) was tested, and the AUC was 0.731 and the IC50 was 10.2 µM. Work on BC-1 (B-cell lymphoma, suspension) yielded an AUC of 0.625 and an IC50 of 4.18 µM. For BC-3 (B-cell lymphoma, suspension), the AUC was 0.951 and the IC50 was over 32 µM. In the case of BCPAP (thyroid, adherent), the AUC is reported as 0.78 and the IC50 is reported as 11.9 µM. With BE2-M17 (neuroblastoma, adherent) the AUC was 0.951 and the IC50 was over 32 µM. Work on “BE-13 (lymphoblastic leukaemia, suspension)” yielded an AUC of 0.875 and an IC50 of 27.9 µM. “BEN (non-small cell lung carcinoma, adherent)” gave an AUC of 0.883 and an IC50 of over 32 µM. With BFTC-905 (bladder, adherent) the AUC was 0.649 and the IC50 was 4.86 µM. BFTC-909 (kidney, adherent) gave an AUC of 0.791 and an IC50 of 14 µM. For BHT-101 (thyroid, adherent), the AUC was 0.828 and the IC50 was 20.6 µM. BHY (head and neck, adherent) gave an AUC of 0.665 and an IC50 of 5.78 µM. For BICR10 (head and neck, adherent), the AUC was 0.743 and the IC50 was 11.3 µM. For BICR22 (head and neck, adherent), the AUC was 0.761 and the IC50 was 12.9 µM. BICR31 (head and neck, adherent) gave an AUC of 0.788 and an IC50 of 14.2 µM. BICR78 (head and neck, adherent) showed an AUC of 0.845 and an IC50 of 28.8 µM. Cell Line BL-41 (Burkitt lymphoma, suspension) has an AUC of 0.66 and an IC50 of 4.94 µM. With BPH-1 (prostate, adherent) the AUC was 0.831 and the IC50 was 23.4 µM. With BT-20 (breast, adherent) the AUC was 0.782 and the IC50 was 16.8 µM. With BT-474 (breast, adherent) the AUC was 0.795 and the IC50 was 16.9 µM. With BT-483 (breast, adherent) the AUC was 0.907 and the IC50 was over 32 µM. “BV-173 (chronic myeloid leukaemia, suspension)” gave an AUC of 0.859 and an IC50 of 21.7 µM. Becker (glioma, adherent) was tested, and the AUC was 0.776 and the IC50 was 14.4 µM. For BxPC-3 (pancreas, adherent), the AUC was 0.704 and the IC50 was 8.15 µM. Cell Line C2BBe1 (large intestine, adherent) has an AUC of 0.754 and an IC50 of 12.1 µM. Work on C3A (liver, adherent) yielded an AUC of 0.833 and an IC50 of 21.8 µM. C32 (melanoma, adherent) gave an AUC of 0.513 and an IC50 of 2.17 µM. In the case of C-4-I (cervix, adherent), the AUC is reported as 0.797 and the IC50 is reported as 16.5 µM. Cell Line C-33-A (cervix, adherent) has an AUC of 0.79 and an IC50 of 14.3 µM. CA46 (Burkitt lymphoma, suspension) was tested, and the AUC was 0.798 and the IC50 was 16.5 µM. CAKI-1 (kidney, adherent) was tested, and the AUC was 0.861 and the IC50 was over 32 µM. “CAL-12T (non-small cell lung carcinoma, adherent)” showed an AUC of 0.753 and an IC50 of 11.8 µM. Work on CAL-27 (head and neck, adherent) yielded an AUC of 0.796 and an IC50 of 15.3 µM. In the case of CAL-29 (bladder, adherent), the AUC is reported as 0.791 and the IC50 is reported as 15.5 µM. CAL-33 (head and neck, adherent) was tested, and the AUC was 0.806 and the IC50 was 16.2 µM. CAL-39 (cervix, adherent) showed an AUC of 0.663 and an IC50 of 5.78 µM. Work on CAL-51 (breast, adherent) yielded an AUC of 0.653 and an IC50 of 4.98 µM. In the case of CAL-54 (kidney, adherent), the AUC is reported as 0.791 and the IC50 is reported as 16.7 µM. Cell Line CAL-62 (thyroid, adherent) has an AUC of 0.701 and an IC50 of 7.1 µM. CAL-72 (osteosarcoma, adherent) gave an AUC of 0.763 and an IC50 of 13.6 µM. Work on CAL-78 (chondrosarcoma, adherent) yielded an AUC of 0.966 and an IC50 of over 32 µM. CAL-85-1 (breast, adherent) gave an AUC of 0.718 and an IC50 of 10 µM. For CAL-120 (breast, adherent), the AUC was 0.836 and the IC50 was 30.4 µM. In the case of CAL-148 (breast, suspension), the AUC is reported as 0.923 and the IC50 is reported as over 32 µM. For CAMA-1 (breast, adherent), the AUC was 0.661 and the IC50 was 6.3 µM. Cell Line CAPAN-1 (pancreas, adherent) has an AUC of 0.734 and an IC50 of 10.1 µM. For CAS-1 (glioma, adherent), the AUC was 0.802 and the IC50 was 22.9 µM. In the case of CCF-STTG1 (glioma, adherent), the AUC is reported as 0.808 and the IC50 is reported as 16.7 µM. With CCK-81 (large intestine, adherent) the AUC was 0.931 and the IC50 was over 32 µM. “CCRF-CEM (lymphoblastic leukaemia, suspension)” was tested, and the AUC was 0.55 and the IC50 was 2.68 µM. With “CESS (acute myeloid leukaemia, suspension)” the AUC was 0.62 and the IC50 was 4.06 µM. With CGTH-W-1 (thyroid, adherent) the AUC was 0.81. CHL-1 (melanoma, adherent) showed an AUC of 0.652 and an IC50 of 5.15 µM. With CHP-126 (neuroblastoma, suspension) the AUC was 0.891 and the IC50 was over 32 µM. Work on CHP-212 (neuroblastoma, adherent) yielded an AUC of 0.604 and an IC50 of 3.76 µM. Cell Line CHSA0011 (chondrosarcoma, adherent) has an AUC of 0.964 and an IC50 of over 32 µM. CHSA0108 (chondrosarcoma, adherent) showed an AUC of 0.797 and an IC50 of 17.8 µM. CHSA8926 (chondrosarcoma, adherent) was tested, and the AUC was 0.751 and the IC50 was 14.6 µM. In the case of CL-11 (large intestine, adherent), the AUC is reported as 0.963 and the IC50 is reported as over 32 µM. “CMK (acute myeloid leukaemia, suspension)” was tested, and the AUC was 0.763 and the IC50 was 9.93 µM. COLO-205 (large intestine, suspension) was tested, and the AUC was 0.702 and the IC50 was 7.36 µM. “COLO-320-HSR (large intestine, suspension)” was tested, and the AUC was 0.842 and the IC50 was 18.3 µM.
